Experimental data published in PubChem BioAssay AID1508624 (National Center for Advancing Translational Sciences (NCATS), 2021).
About 120 (0.25%) of roughly 48,000 compounds were called active. About 4% were inconclusive and are not listed. Calls follow the shape of the dose curve; as a rule, active = well fitted activation curve with a large enough effect; inconclusive = small, poorly fitted or top-dose-only effect, or another doubt; inactive = no such curve, though single readings can be large or run the other way. Some of the results follow.

Assay: Primary qHTS for Identification of Small Molecule Activators of Huntingtin-Antisense Promoter Activity; also: nearly all actives have a fitted effect of over 55% in size
Settings: HEK293 HTT-AS promoter firefly luciferase reporter, 24 h; series mostly up to 57.5 µM; activity change, positive = activation: at the top concentration
In short: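 HEK293 Fluc reporter, 2,500 cells/well, 24 h pre-culture; cpds up to 57.5 uM final, 24 h 37 degrees C; Dual-Glo, 10 min RT; normalized vehicle = 0%, zero RLU = -100%.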

Activity change, positive = activation, inactive:
Cc1ccc(CCNC(=O)c2ccc3c(c2)N(Cc2cccc(C)c2)C(=O)c2ccccc2S3(=O)=O)cc1 -15.1%, CC(C)c1ccc(NC(=O)c2cc3c(s2)-c2ccccc2SC3)cc1 -9.55%, Cc1cc(=O)[nH]c2nnc(SCC(=O)NC(C)(C)C)n12 -12.5%, O=C(CN1C(=O)COc2ccc(S(=O)(=O)N3CCCCCC3)cc21)NCc1ccc(Cl)cc1 -32.3%, CCc1ccc(N=C2NC(=O)CC(C(=O)Nc3ccc(OC)cc3)S2)cc1 (centres undefined) 15.7% [at 11.5 µM, percent change from vehicle, -100% = no light], COc1cc2c(cc1OC)C(COc1ccccc1OC)N(C(=O)CC(C)C)CC2 (centres undefined) -20.8%, Cc1ccc(C(=O)N2CCc3cc(CNS(=O)(=O)c4ccc(Cl)s4)ccc32)cc1 -32.7%, O=C(Nc1ccc(NC(=O)c2cc3ccccc3o2)cc1)c1ccccc1 4.4%, Cn1cc(S(=O)(=O)c2ccc(Cl)cc2)c(=O)c2cc(F)c(N3CCCCCC3)cc21 -15.1%, O=C(CN1CCN(S(=O)(=O)c2cc(Cl)ccc2Cl)CC1)Nc1cccc(F)c1 -32.9%, CC(C(=O)Nc1cccc(C#N)c1)n1nc(-c2ccccc2)c2c(c1=O)CCCC2 (centres undefined) -24%, Fc1ccc(-c2nc(Nc3ccc(F)c(Cl)c3)nc3c2COc2ccccc2-3)cc1 -13.4%, CCOc1ccc(C2CC(=O)n3nc(-c4ccc(C)cc4)nc3S2)cc1OC (centres undefined) -2.59%, CC1=C(C(=O)Nc2ccc(C)cc2C)C(c2ccccc2[N+](=O)[O-])n2ncc(C(=O)Nc3ccccc3)c2N1 (centres undefined) 15.1%, CCOC(=O)C1CCCN(C(=O)c2ccc3c(c2)N(Cc2ccccc2)C(=O)c2ccccc2S3(=O)=O)C1 (centres undefined) 3.14%, O=C(NC1CC1)c1ccc(Cn2c(SCc3cccc(F)c3)nc3cccnc32)cc1 -15.2%, O=C(NCC(c1cccnc1)N1CCc2ccccc2C1)c1ccc(F)c(F)c1 (centres undefined) -22.9%, O=C(Nc1ccc(Cl)cc1)C1CCN(c2nc3ccccc3nc2C(F)(F)F)CC1 2.99%, COc1ccccc1N1CCN(C(=O)c2ccc(CS(=O)c3ccccc3C)o2)CC1 (centres undefined) -27.4%, COc1ccc(CCN2C(=O)c3oc4cc(C)cc(C)c4c(=O)c3C2c2ccc(F)cc2)cc1OC (centres undefined) -6.55%, CCS(=O)(=O)N1CCc2cc(C(=O)NCc3ccc(OC)cc3)ccc21 -13.4%, Cn1cc(S(=O)(=O)c2cccc(Cl)c2)c(=O)c2cc(F)c(N3CCCCCC3)cc21 6.03%, CCC(CC)C(=O)Nc1ccc(OCc2cc(=O)n3c4c(sc3n2)CCCC4)cc1 -12.2%, O=C(O)P(=O)(O)O -1.58%, COc1cccc(-c2nnc3n(Cc4ccc(F)cc4)c(=O)c4ccccc4n23)c1 0%, COc1ccc(CCNC(=O)NCc2noc3ccccc23)c(OC)c1 -12.8%, CN(C)c1ccc(C(CNS(=O)(=O)c2ccc(Cl)cc2)N2CCCC2)cc1 (centres undefined) -20.4%, CC(C)NCC(O)c1ccc(NS(C)(=O)=O)cc1 (centres undefined) -0.025%, COc1cc(C(=O)NCC(c2cccnc2)N2CCN(c3ccc(F)cc3)CC2)cc(OC)c1OC (centres undefined) -16.5%, Cc1cccc(-c2nc3c(C#N)c[nH]n3c2NC2CCCCC2)c1 40%, Cc1ccc(-c2noc(CN(C3CCCCC3)S(=O)(=O)c3ccc(C)cc3)n2)cc1 -27.3%, Cc1nn(-c2ccc3nncn3n2)c(C)c1CCC(=O)Nc1ccc(OC(F)(F)F)cc1 -15.3%, Cc1ccccc1CNC(=O)c1ccc(-n2c(C)cc3c2CCCC3)cc1 -2.71%, CO[C@H]1C=CC=C(C)C(=O)NC2=CC(=O)C(NCCN(C)C)=C(C[C@@H](C)C[C@H](OC)[C@@H](O)[C@@H](C)C=C(C)[C@@H]1OC(N)=O)C2=O -91.7%, C#C[C@]1(O)CC[C@H]2[C@@H]3CCc4cc(OC)ccc4[C@H]3CC[C@@]21C 5.21%, COc1ccccc1CNC(=O)C1CCN(Cc2nc(-c3ccc(OC)c(OC)c3)oc2C)CC1 -22.7%, CCCCN(C)CCNC(=O)c1cc(-c2cccnc2)nc2ccc(S(=O)(=O)N3CCC(C)CC3)cc12 -3.53%, Cc1ccn2c(c1)nc(=O)c1cc(S(=O)(=O)N3CCC(C)CC3)c(Cl)cc12 -2.26%, CN(C)C(=O)c1ccc(S(=O)(=O)c2ccc(NC(=O)[C@@](C)(O)C(F)(F)F)c(Cl)c2)cc1 -51%, CN(Cc1ccccc1)c1nc(-c2ccc(F)cc2)cc(C(F)(F)F)n1 -12.6%, O=C(COc1ccccc1F)Nc1ccc(C(=O)OCc2cc(=O)n3nc(C4CC4)sc3n2)cc1 9.98%, Cc1ccc(NC(=O)CCSCCc2ccccn2)cc1 -12.5%, Cc1ccc(-c2cc3ncc(C(=O)c4cc([N+](=O)[O-])ccc4O)cn3n2)cc1 -28.9%, CCc1ccc(-n2c(C)nnc2SCc2nc(-c3ccc(OC)cc3)no2)cc1 -27.6%, O=C(Nc1ccc(Cl)cc1Cl)c1cc(S(=O)(=O)N2CCN(c3ccccc3F)CC2)ccc1F -13.7%, CC1=C(C)C(=O)C(CCCCC#CCCCC#CCO)=C(C)C1=O -30.4%, COc1ccc(Br)cc1CNC(=O)CCCn1c(=O)c2cccn2c2ccccc21 -37.6%, CCC(C(=O)Nc1cccc(-c2cn3cccnc3n2)c1)c1ccccc1 (centres undefined) -0.949%, CCC(Oc1ccccc1F)C(=O)Nc1c(C(=O)c2ccccc2)oc2ccccc12 (centres undefined) -12.4%, O=C(Nc1ccc(Cl)cc1)C1CCN(c2nc3ccccc3n3cccc23)CC1 -21.6%, CC(C)(C)OC(=O)N1CCC(c2c(C(=O)NCc3ccc4c(c3)OCO4)cnn2-c2ccc(F)cc2F)CC1 -25.1%, COc1ccc(CNC(=O)c2ccc3c(c2)N(Cc2ccccc2)C(=O)c2ccccc2S3(=O)=O)cc1 -7.59%, COc1ccc(-c2cc3nc(C4CCN(C(=O)OC(C)(C)C)CC4)c(C(=O)Nc4cc(Cl)cc(Cl)c4)cn3n2)cc1 -19.6%, CCOc1ccccc1N(C)C(=O)c1nn(-c2ccc(C)cc2)c(=O)c2c1c1ccccc1n2C 1.83%, COc1cc(C=O)ccc1O -0.705%, COc1ccc(OC)c(NC(=O)c2csnn2)c1 2.37%, CCOc1ccccc1-c1nnc(SCc2ccc(Cl)cc2)o1 -9.61%, COCCCNC(=O)c1cc(-c2cccnc2)nc2ccccc12 -9.45%, COc1ccc(-n2c(SCC(=O)N3CCC(C)CC3)nc3c([nH]c4ccccc43)c2=O)cc1 -11.6%
